Experimental data: PubChem BioAssay AID720709 (National Center for Advancing Translational Sciences (NCATS), 2013)
Screen size: about 360,000 compounds; about 520 (0.14%) were called active. Inconclusive means that the source gave no clear call. Such entries were picked first, then a sample of the others. The call rests on the fitted dose curve; in most records, active means well fitted inhibition curve with a large enough effect; inconclusive means small, poorly fitted or top-dose-only effect; inactive means no such curve, though single readings can be large or run the other way. Potencies of inconclusive entries are left out as doubtful fits.

Each compound was assayed against Rap guanine nucleotide exchange factor 3 (Homo sapiens) (UniProt O95398) (assay: qHTS for Antagonist of cAMP-regulated guanine nucleotide exchange factor 3 (EPAC1): primary screen). Conditions: EPAC1 GEF assay, Rap1b-BODIPY-GDP exchange fluorescence; activity change, negative = inhibition: at 115 µM (top of the series).
UniProt O95398, sequence (O95398 whole entry, looked up): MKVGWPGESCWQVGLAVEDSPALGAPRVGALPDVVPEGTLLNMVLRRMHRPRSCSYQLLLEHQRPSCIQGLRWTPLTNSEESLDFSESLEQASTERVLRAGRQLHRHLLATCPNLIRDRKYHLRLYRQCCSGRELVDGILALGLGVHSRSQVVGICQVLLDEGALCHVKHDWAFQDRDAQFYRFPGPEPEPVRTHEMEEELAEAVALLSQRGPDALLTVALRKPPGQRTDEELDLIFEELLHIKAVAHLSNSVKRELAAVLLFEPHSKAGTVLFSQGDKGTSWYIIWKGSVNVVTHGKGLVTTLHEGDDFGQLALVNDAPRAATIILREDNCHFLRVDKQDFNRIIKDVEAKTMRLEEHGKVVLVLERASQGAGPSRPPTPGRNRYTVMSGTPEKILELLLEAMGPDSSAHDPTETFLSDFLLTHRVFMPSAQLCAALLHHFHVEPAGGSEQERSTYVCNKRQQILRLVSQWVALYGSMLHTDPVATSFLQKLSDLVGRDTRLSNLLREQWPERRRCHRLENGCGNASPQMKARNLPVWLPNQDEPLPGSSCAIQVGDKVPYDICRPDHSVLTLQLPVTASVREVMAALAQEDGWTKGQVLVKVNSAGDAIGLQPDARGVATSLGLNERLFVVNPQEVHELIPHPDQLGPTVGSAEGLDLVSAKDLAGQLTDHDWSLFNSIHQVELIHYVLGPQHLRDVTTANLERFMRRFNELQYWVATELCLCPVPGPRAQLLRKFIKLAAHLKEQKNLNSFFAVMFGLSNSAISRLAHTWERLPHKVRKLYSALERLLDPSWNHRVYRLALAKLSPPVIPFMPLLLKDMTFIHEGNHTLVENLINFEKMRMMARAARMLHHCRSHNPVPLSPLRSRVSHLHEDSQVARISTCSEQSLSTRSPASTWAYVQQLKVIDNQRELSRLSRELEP
Further: nearly all actives have a fitted effect of over 50% in size.
Potency means the concentration at half of the fitted maximal effect; tags describe the fitted curve by direction and shape.
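Wherever activity change, negative = inhibition is given: plate controls were vehicle for no effect and positive control for full effect.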

SMILES | Potency | activity change, negative = inhibition
O=C(Nc1ccccc1C(=O)NC1CC1)c1ccccc1 | inconclusive [inhibitor, single point] | –
COc1ccc(COC[C@H](CC(C)C)N2CCN(C(=O)c3cccc(C(F)(F)F)c3)CCC2=O)cc1 | inconclusive [inhibitor, single point] | –
O=C(/C=C/c1ccccc1)/C=C/c1ccccc1 | inconclusive [inhibitor, partial curve, poor fit] | –
Cc1cc(C)c(S(=O)(=O)Nc2cccc(-n3cnnn3)c2)c(C)c1 | inconclusive [inhibitor, single point] | –
CCOC(=O)C1CCCN(c2c(NCCN3CCCCC3C)c(=O)c2=O)C1 (stereo unspecified) | inconclusive [inhibitor, single point] | –
O=S(=O)(NCC(c1cccnc1)N1CCN(c2ccccc2F)CC1)c1cccs1 (stereo unspecified) | inconclusive [inhibitor, single point] | –
CCN(Cc1ccccc1)S(=O)(=O)c1cc(C(=O)c2c(N)n(C)c(=O)n(C)c2=O)ccc1OC | inactive | –
O=C(Nc1cccc(S(=O)(=O)NC2=NCCCCC2)c1)c1cc(-c2ccc(Cl)cc2)nc2ccccc12 | inconclusive [inhibitor, single point] | –
Cc1cccc(NC(=S)NCCc2ccc(Cl)cc2)c1C | inconclusive [inhibitor, full curve] | –
N#C/C(=C\c1ccc(O)c(O)c1)C(=O)N1CCc2ccccc21 | inconclusive [inhibitor, full curve, poor fit] | –
COCCNc1nc(N)c([N+](=O)[O-])c(NC2CCCCC2)n1 | inconclusive [inhibitor, single point] | –
C[C@H]1CCC(=O)N([C@H](CSc2ccc(Br)cc2)Cc2ccccc2)CC1 | inactive | –
Cc1nc(-c2ccccc2)sc1C(=O)/C=C/N(C)C | inconclusive [inhibitor, single point] | –
COc1ccccc1Cc1c(-c2ccco2)nc2c(C)cc(Br)cn12 | inconclusive [inhibitor, partial curve] | –
CCOC(=O)c1c(NC(=O)c2noc(C)c2[N+](=O)[O-])sc(C(C)=O)c1C | inconclusive [inhibitor, partial curve] | –
CCOC(CNC(=O)c1ccc(N2CCc3ccccc32)c([N+](=O)[O-])c1)OCC | inconclusive [inhibitor, partial curve] | –
O=C(Cn1cc2c(n1)CCCC2)NCCCN1CCN(C2CCCCC2)CC1 | inconclusive [inhibitor, partial curve] | –
Cc1ccc(C(=O)Nc2nnc(S(=O)(=O)N3CCCCCC3)s2)cc1 | – | inconclusive: -18.4% [inhibitor]
CCCc1[nH]c2ccc(C#N)cc2c1CCC | inactive | –
COc1cccc(C(=O)Nc2cc(S(=O)(=O)N3CCCCC3)ccc2OC)c1 | inconclusive [inhibitor, full curve, poor fit] | –
O=C(CCC(=O)N1CCN(c2ccccn2)CC1)c1ccc(Cl)s1 | inactive | –
Cc1cccc(N/C(=N\S(=O)(=O)c2ccccc2)C(F)(F)F)c1 | inconclusive [inhibitor, full curve, poor fit] | –

SMILES | Potency | activity change, negative = inhibition
CCCOC(=O)Cn1cnc2scc(-c3ccc(OC)cc3)c2c1=O | inconclusive [inhibitor, full curve] | –
COc1cccc(C2C(C(=O)/C=C/c3ccco3)=C(O)C(=O)N2CCN2CCOCC2)c1 (stereo unspecified) | inactive | –
COCCN(C(=O)COC(=O)c1cc2c(s1)CCCC2)c1c(N)n(Cc2ccccc2)c(=O)[nH]c1=O | inconclusive [inhibitor, single point] | –
C/C(=N\OC(=O)c1ccc(Br)cc1)c1ccccn1 | inactive | –
COc1ccc2[nH]c(=O)c(CN(C(=O)c3ccco3)C(C)C)cc2c1 | inconclusive [inhibitor, single point] | –
CN(C)c1ccc(C=Nc2ccc(N(C)C)cc2)cc1 | inactive | –
CCOC(=O)C1=C(C)N(C)C(=S)NC1c1cc(OC)ccc1OC (stereo unspecified) | inconclusive [inhibitor, single point] | –
CC(C)C[C@@H](CN)NC(=O)c1nc[nH]c1C(=O)N[C@@H](Cc1ccccc1)C(=O)CNC[C@H](C)NC(=O)c1nc[nH]c1C(=O)N[C@@H](CC(=O)O)C(=O)O | inconclusive [inhibitor, single point] | –
O=C(Oc1cccc(/C=N/Nc2nc(Nc3ccccc3)nc(N3CCOCC3)n2)c1)c1ccco1 | inconclusive [inhibitor, full curve, poor fit] | –
COc1ccc(C(=O)C(c2ccccc2)N2CCOCC2)cc1 (stereo unspecified) | inactive | –
O=C(Cn1cc2c(n1)CCCCC2)N1CCc2ccccc21 | inconclusive [inhibitor, partial curve] | –
Cc1ccc(C(=O)Nc2cc(C)nn2CCC#N)cc1 | inconclusive [inhibitor, single point] | –
CCC(C)(C)NC(=O)C1CCCN(S(=O)(=O)c2ccc3c(c2)CC(C)N3C(=O)C2CC2)C1 (stereo unspecified) | inconclusive [inhibitor, single point] | –
Clc1cccc(CN2CCc3c([nH]c4ccccc34)C2)c1 | inconclusive [inhibitor, partial curve] | –
COc1ccc(C2C(C(C)=O)=C(O)C(=O)N2c2ccccn2)cc1 (stereo unspecified) | inconclusive [inhibitor, single point] | –
Cc1cc(N2C(=O)C(O)=C(C(=O)c3ccco3)C2c2ccc([N+](=O)[O-])cc2)no1 (stereo unspecified) | inconclusive [inhibitor, partial curve] | –
CCc1nnc(NC(=O)Cc2ccc(OC)cc2)s1 | – | inconclusive: -14.8% [inhibitor]
O=C(NC1CCCCC1)C(c1ccccc1)N(Cc1ccc2c(c1)OCO2)C(=O)c1cnsn1 (stereo unspecified) | inconclusive [inhibitor, single point] | –
CC(CNC(=O)CCC(=O)N1CCOc2ccc(Cl)cc21)c1ccccc1 (stereo unspecified) | inconclusive [inhibitor, single point] | –
Cc1ccc(OCC(=O)N2N=C(c3ccc(Cl)cc3)CC2c2ccco2)c([N+](=O)[O-])n1 (stereo unspecified) | inactive | –
S=C(NN=C(c1ccccc1)c1ccccn1)N(Cc1ccccn1)Cc1ccccn1 | inactive | –
COc1ccccc1Oc1ccnc2cc(Cl)ccc12 | inactive | –

SMILES | Potency | activity change, negative = inhibition
CC(C)(C)c1cccc(Cn2nnc3ccccc32)c1O | inconclusive [inhibitor, full curve, poor fit] | –
Cc1ccc(S(=O)(=O)N(C)C[C@H]2Oc3c(NC(=O)Nc4cccc5ccccc45)cccc3C(=O)N([C@@H](C)CO)C[C@@H]2C)cc1 | inactive | –
Cc1ccc(C2CC(=O)N3CN(c4ccc(Br)cc4)CSC3=C2C#N)o1 (stereo unspecified) | inactive | –
COc1cc(SC)ccc1C(=O)N1CCN(c2ccccc2)CC1 | inconclusive [inhibitor, full curve] | –
Fc1ccc(C(CCNCc2ccccn2)c2ccc(Cl)cc2)cc1 (stereo unspecified) | inactive | –
COc1ccc(-c2cn[nH]c2-c2ccc(OCc3ccccc3)cc2O)cc1 | inconclusive [inhibitor, full curve, poor fit] | –
CN1CCC(N(C)C(=O)c2ccc(Cl)c(S(=O)(=O)N3CCc4ccccc43)c2)CC1 | inconclusive [inhibitor, full curve] | –
O=C(/C=C/c1cccs1)Nc1ccc(S(=O)(=O)Nc2ncccn2)cc1 | inconclusive [inhibitor, single point] | –
O=C(/C=C/c1ccc(NC(=O)c2ccccc2-c2ccccc2C(=O)O)cc1)c1ccccc1 | inconclusive [inhibitor, partial curve] | –
CN(CC(=O)Nc1cccc(F)c1)C(=O)c1cc(-c2ccco2)nc2ccccc12 | inconclusive [inhibitor, partial curve] | –
CN1C(=O)CCC1(O)c1ccccc1 (stereo unspecified) | inactive | –
O=C(O)c1ccccc1-c1ccc(C=c2sc3nc4cc(Br)cnc4n3c2=O)o1 | inconclusive [inhibitor, partial curve] | –
CN(CCc1ccccc1)C(=O)c1ccc(NC(=O)Cc2ccc(NC(=O)C3CCN(C(=O)C4CC4)CC3)cc2)cc1 | inactive | –
Cc1ccccc1CC1(CO)CCCN(C(=O)c2cc(Cl)ccc2F)C1 (stereo unspecified) | inactive | –
Cc1nn(CCC(N)=O)c2nc(-c3cccs3)cc(C(F)(F)F)c12 | inconclusive [inhibitor, partial curve, poor fit] | –
Cc1[nH]c2ccccc2c1C(=O)C(=O)N1CCN(c2cccc(Cl)c2)CC1 | inconclusive [inhibitor, partial curve] | –
Cc1ccc2c(c1)C1CN(C)CCC1N2C(=O)COc1ccc(N(C)C(=O)c2ccccc2)cc1 (stereo unspecified) | inactive | –
C=CCn1c(SCC(=O)c2ccccc2)nnc1-c1cc2ccccc2o1 | inconclusive [inhibitor, full curve, poor fit] | –
CCCCOP(=O)(OCCCC)C(Nc1ccccc1)c1ccc2c(c1)OCO2 (stereo unspecified) | inconclusive [inhibitor, partial curve, poor fit] | –
O=[N+]([O-])c1cccc(-c2csc(Nc3ccccc3)n2)c1 | inconclusive [inhibitor, partial curve] | –
COc1ccc2c(C(F)(F)F)cc(=O)oc2c1C | inconclusive [inhibitor, single point] | –
COc1ccc(Br)cc1CN(C)CC(=O)Nc1cccc(S(N)(=O)=O)c1 | inconclusive [inhibitor, partial curve, poor fit] | –
